Lines with a small IC50 respond at low doses; fits outside the tested doses are given as limits. AUC is the area under the same curve over the 256-fold range up to the top dose, as a fraction: 1 means no effect, lower means more sensitive. For part of these data: Any top dose called inferred was calculated from the reported fits. For part of these data: An entry number marks a drug with two screens in the source, which often give different values.
What was measured:
Assay in all cases: Viability of human cancer cell lines after 72 h of drug (GDSC screen)
NSC-87877 = compound: O=S(=O)(O)c1ccc2cc(N=Nc3cc(S(=O)(=O)O)c4cccnc4c3O)ccc2c1 [NSC-87877]; conditions: top dose 16 µM; top dose inferred
Experimental: (§1)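 Human cancer cell lines in 384-well plates, medium with 10% serum, drug for 72 h over a 256-fold dose range (nine 2-fold or five 4-fold steps up to the top dose). Adherent lines were fixed and stained with the nucleic acid dye Syto60, suspension lines read with resazurin; signal relative to control wells, capped at 0 and 100%. One two-parameter sigmoid per drug and line, fitted in a mixed model over all curves with the slope shared within a line.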

BX-912 = compound: O=C(Nc1cccc(Nc2ncc(Br)c(NCCc3cnc[nH]3)n2)c1)N1CCCC1 [BX-912]; conditions: top dose 10.24 µM; top dose inferred
Experimental: as §1

Elesclomol = compound: CN(NC(=O)CC(=O)NN(C)C(=S)c1ccccc1)C(=S)c1ccccc1 [Elesclomol]; conditions: top dose 0.2 µM; top dose inferred
Experimental: as §1

Bleomycin = compound: Cc1c(N)nc([C@H](CC(N)=O)NC[C@H](N)C(N)=O)nc1C(=O)N[C@H](C(=O)N[C@H](C)[C@@H](O)[C@H](C)C(=O)N[C@H](C(=O)NCCc1nc(-c2nc(C(=O)NCCC[S+](C)C)cs2)cs1)[C@@H](C)O)[C@@H](OC1OC(CO)C(O)C(O)C1OC1OC(CO)C(O)C(OC(N)=O)C1O)c1cnc[nH]1 [Bleomycin]
Experimental: as §1

OSI-930 = compound: O=C(Nc1ccc(OC(F)(F)F)cc1)c1sccc1NCc1ccnc2ccccc12 [OSI-930]; conditions: top dose 10.24 µM
Experimental: as §1

Masitinib = compound: Cc1ccc(NC(=O)c2ccc(CN3CCN(C)CC3)cc2)cc1Nc1nc(-c2cccnc2)cs1 [Masitinib]; conditions: top dose 20 µM
Experimental: as §1

Tamoxifen = compound: CC/C(=C(\c1ccccc1)c1ccc(OCCN(C)C)cc1)c1ccccc1 [Tamoxifen]; conditions: top dose 5 µM
Experimental: as §1

LAQ824 = compound: O=C(/C=C/c1ccc(CN(CCO)CCc2c[nH]c3ccccc23)cc1)NO [LAQ824]; conditions: top dose 1.024 µM; top dose inferred
Experimental: as §1

VNLG/124 = compound: CCCC(=O)OCc1ccc(OC(=O)/C=C(C)/C=C/C=C(C)/C=C/C2=C(C)CCCC2(C)C)cc1 [VNLG/124]; conditions: top dose 5.12 µM; top dose inferred
Experimental: as §1

[1] = top dose 50 µM, screen: GDSC drug entry 1378, top dose inferred
[2] = top dose 64 µM, screen: GDSC drug entry 190

Cell Line	AUC (NSC-87877)	IC50 (NSC-87877) [µM]	AUC (BX-912)	IC50 (BX-912) [µM]	AUC (Elesclomol)	IC50 (Elesclomol) [µM]	AUC (Bleomycin; [1])	IC50 (Bleomycin; [1]) [µM]	AUC (Bleomycin; [2])	IC50 (Bleomycin; [2]) [µM]	AUC (OSI-930)	IC50 (OSI-930) [µM]	AUC (Masitinib)	IC50 (Masitinib) [µM]	AUC (Tamoxifen)	IC50 (Tamoxifen) [µM]	AUC (LAQ824)	IC50 (LAQ824) [µM]	AUC (VNLG/124)	IC50 (VNLG/124) [µM]
42-MG-BA (glioma, adherent)	0.985	> 16	0.825	6.69	0.439	0.0084	0.266	0.636	0.614	8.4	0.973	> 10.2	0.955	> 20	0.98	> 5	0.615	0.136	0.985	> 5.12
647-V (bladder, adherent)	0.987	> 16	0.951	> 10.2	0.425	0.00778	0.525	3.65	0.373	1.79	0.972	> 10.2	0.981	> 20	0.968	> 5	0.499	0.0637	0.979	> 5.12
697 (lymphoblastic leukaemia, suspension)	0.95	> 16	0.399	0.36	0.36	0.0056	0.568	4.61	0.337	1.56	0.921	> 10.2	0.855	11.2	0.983	> 5	0.174	0.00888	0.952	> 5.12
5637 (bladder, adherent)	0.987	> 16	0.621	1.33	0.653	0.0317	0.239	0.604	0.081	< 0.25	0.98	> 10.2	0.908	> 20	0.979	> 5	0.359	0.0272	0.989	> 5.12
23132-87 (stomach, adherent)	0.98	> 16	0.952	> 10.2	0.742	0.0634	0.402	1.66	0.221	0.589	0.982	> 10.2	0.939	> 20	0.979	> 5	0.456	0.0484	0.984	> 5.12
A3-KAW (B-cell lymphoma, suspension)	0.992	> 16	0.783	3.42	0.905	0.172	0.347	1.3	0.226	0.793	0.908	9.06	0.895	15.6	0.978	> 5	0.287	0.0186	0.985	> 5.12
A4-Fuk (B-cell lymphoma, suspension)	0.984	> 16	0.818	6.07	0.84	0.147	0.913	> 50	0.761	23.7	0.98	> 10.2	0.932	> 20	0.982	> 5	0.273	0.0141	0.917	> 5.12
ACHN (kidney, adherent)	0.971	> 16	0.912	> 10.2	0.957	> 0.2	0.099	< 0.195	0.169	0.33	0.974	> 10.2	0.957	> 20	0.98	> 5	0.495	0.062	0.973	> 5.12
AM-38 (glioma, semi-adherent)	0.984	> 16	0.861	8.93	0.823	0.121	0.889	> 50	0.557	5.73	0.983	> 10.2	0.889	> 20	0.98	> 5	0.552	0.0889	0.988	> 5.12
AN3-CA (endometrium, adherent)	0.834	11.9	0.903	> 10.2	0.5	0.0125	0.827	34.5	0.429	2.51	0.972	> 10.2	0.879	> 20	0.95	> 5	0.399	0.0329	0.978	> 5.12
ARH-77 (myeloma, suspension)	0.988	> 16	0.754	3.34	0.947	> 0.2	0.635	7.26	0.255	0.819	0.934	> 10.2	0.871	17.7	0.974	> 5	0.304	0.0184	0.946	> 5.12
CHP-126 (neuroblastoma, suspension)	0.983	> 16	–	–	0.499	0.0124	0.42	1.88	0.348	1.5	0.973	> 10.2	0.832	13.2	0.986	> 5	0.327	0.0208	0.987	> 5.12
Caov-4 (ovary, adherent)	0.98	> 16	0.868	> 10.2	0.564	0.0203	0.756	24.8	0.775	38.1	0.953	> 10.2	0.896	> 20	0.971	> 5	0.599	0.136	–	–
EHEB (lymphoid neoplasm, suspension)	0.963	> 16	–	–	0.877	> 0.2	0.474	2.57	0.415	2.11	–	–	–	–	0.715	1.7	0.379	0.0255	–	–
GA-10 (Burkitt lymphoma, suspension)	0.991	> 16	–	–	0.482	0.0112	0.836	26.2	–	–	–	–	–	–	0.97	> 5	–	–	–	–
Hs746T (stomach, adherent)	0.967	> 16	0.655	2.01	0.671	0.0444	0.787	30.5	–	–	0.978	> 10.2	0.874	> 20	0.974	> 5	–	–	0.971	> 5.12
IGR-37 (melanoma, adherent)	0.986	> 16	–	–	0.65	0.0312	0.682	9.56	0.099	< 0.25	0.988	> 10.2	–	–	0.988	> 5	0.427	0.0413	0.96	> 5.12
IM-9 (myeloma, suspension)	0.962	> 16	–	–	0.991	> 0.2	0.619	6.33	0.48	3.56	–	–	–	–	0.983	> 5	0.874	0.763	–	–
KARPAS-231 (B-cell leukaemia, suspension)	0.922	14.9	–	–	0.348	0.00528	0.852	25.7	0.643	9.01	0.912	8.62	0.689	3.66	0.992	> 5	0.14	0.00732	–	–
KASUMI-1 (acute myeloid leukaemia, suspension)	0.984	> 16	0.254	0.125	0.912	> 0.2	0.95	> 50	–	–	0.144	0.0494	0.149	0.101	0.948	> 5	–	–	–	–
KM-H2 (Hodgkin lymphoma, suspension)	0.99	> 16	0.931	> 10.2	0.966	> 0.2	–	–	–	–	0.971	> 10.2	0.893	17.4	0.992	> 5	0.545	0.0832	0.987	> 5.12
KP-1N (pancreas, adherent)	0.985	> 16	0.912	> 10.2	0.64	0.0312	0.366	1.31	0.592	7.22	–	–	–	–	0.983	> 5	0.515	0.0707	–	–
LN-405 (glioma, adherent)	–	–	0.95	> 10.2	0.763	0.09	0.894	> 50	0.938	> 64	0.952	> 10.2	0.896	> 20	0.957	> 5	0.645	0.18	0.984	> 5.12
MV-4-11 (leukaemia, suspension)	0.983	> 16	0.025	< 0.04	0.365	0.00572	0.654	7.66	0.122	0.352	0.81	4.23	–	–	0.967	> 5	–	–	0.622	0.649
OCI-AML2 (acute myeloid leukaemia, suspension)	0.99	> 16	0.76	2.81	0.994	> 0.2	0.69	9.13	0.403	2.32	0.932	9.62	0.919	16.5	0.988	> 5	0.314	0.0225	–	–
OCI-M1 (acute myeloid leukaemia, suspension)	0.992	> 16	0.428	0.426	0.991	> 0.2	0.966	> 50	0.834	28.5	0.992	> 10.2	–	–	0.995	> 5	0.321	0.0232	0.832	2.26
OV-7 (ovary, adherent)	–	–	0.917	> 10.2	0.7	0.0616	0.554	4.72	–	–	0.954	> 10.2	0.872	> 20	0.946	> 5	–	–	0.976	> 5.12
RCC-MF (kidney, adherent)	–	–	0.9	> 10.2	0.395	0.00589	0.774	25.7	–	–	0.962	> 10.2	0.739	7.54	0.97	> 5	–	–	0.979	> 5.12
RPMI-8226 (myeloma, suspension)	0.987	> 16	0.928	> 10.2	0.591	0.0214	0.967	> 50	0.976	> 64	0.965	> 10.2	–	–	0.981	> 5	0.435	0.0435	0.942	> 5.12
SNU-61 (large intestine, adherent)	–	–	0.953	> 10.2	0.949	> 0.2	0.975	> 50	–	–	0.985	> 10.2	0.924	> 20	0.981	> 5	–	–	0.97	> 5.12

From the supplement of paper PMC4967469
